This is one part of the list. Many values rest on one well or one pass, so single values are uncertain.
Key:
Assay in all cases: cell count relative to DMSO control; melanoma cells; higher = more viable cells
Conditions in all cases: library dose: low library concentration; 72 h
MZ2-MEL = tested on: MZ2-MEL
MeWo = tested on: MeWo
RPMI7951 = tested on: RPMI7951
RVH-421 = tested on: RVH-421
SkMel28 = tested on: SkMel28
SkMel2 = tested on: SkMel2
SkMel30 = tested on: SkMel30
UACC62 = tested on: UACC62
SkMel5 = tested on: SkMel5
UACC257 = tested on: UACC257
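Also: cell number obtained by counting DAPI-stained nuclei in high-throughput microscope images with image analysis software, screen run in 1,536-well plates.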

Row | SMILES | cell count (MZ2-MEL) | cell count (MeWo) | cell count (RPMI7951) | cell count (RVH-421) | cell count (SkMel28) | cell count (SkMel2) | cell count (SkMel30) | cell count (UACC62) | cell count (SkMel5) | cell count (UACC257)
1 | CN(c1ncccc1CNc1nc(Nc2ccc3c(c2)CC(=O)N3)ncc1C(F)(F)F)S(C)(=O)=O + OCc1c[nH]c2ccccc12 [Indole-3-carbinol] (first compound 0.08 µM, partner dose 0.8 µM) | 91.5% | 92.8% | 82.3% | 87.6% | 73.7% | 92.4% | 98.4% | 83.3% |  | 
2 | CS(=O)(=O)c1ccc(C(=O)Nc2ccc(Cl)c(-c3ccccn3)c2)c(Cl)c1 [vismodegib] + C=CCNC1=C2C[C@@H](C)C[C@H](OC)[C@H](O)[C@@H](C)/C=C(\C)[C@H](OC(N)=O)[C@@H](OC)/C=C\C=C(/C)C(=O)NC(=CC1=O)C2=O [Tanespimycin] (first compound 1 µM, partner dose 0.002 µM) | 105% | 91.7% | 92.9% | 119% | 101% | 108% | 131% | 91.6% |  | 
3 | CN(c1ncccc1CNc1nc(Nc2ccc3c(c2)CC(=O)N3)ncc1C(F)(F)F)S(C)(=O)=O + Nc1ncn([C@H]2C[C@H](O)[C@@H](CO)O2)c(=O)n1 [decitabine] (first compound 0.08 µM, partner dose 0.1 µM) | 75.9% | 103% | 75.9% | 75.1% | 99.1% | 89.7% | 91.4% | 70.9% |  | 
4 | NC1(c2ccc(-c3nc4ccn5c(=O)[nH]nc5c4cc3-c3ccccc3)cc2)CCC1 + CNC(=O)c1cc(Oc2ccc(NC(=O)Nc3ccc(Cl)c(C(F)(F)F)c3)cc2)ccn1 [sorafenib] (first compound 0.4 µM, partner dose 0.4 µM) | 80.7% | 85.7% | 94% | 108% | 56.7% | 86.7% | 80.9% | 72.4% |  | 
5 | NC1(c2ccc(-c3nc4ccn5c(=O)[nH]nc5c4cc3-c3ccccc3)cc2)CCC1 + CCCS(=O)(=O)Nc1ccc(F)c(C(=O)c2c[nH]c3ncc(Cl)cc23)c1F [PLX4720] (first compound 0.4 µM, partner dose 0.08 µM) | 81.4% | 80.6% | 84.8% | 75.7% | 73.6% | 92.9% | 83.9% | 51.4% |  | 
6 | CN(c1ncccc1CNc1nc(Nc2ccc3c(c2)CC(=O)N3)ncc1C(F)(F)F)S(C)(=O)=O + CN1CCN(c2ccc3nc(-c4c(N)c5c(F)cccc5[nH]c4=O)[nH]c3c2)CC1 [Dovitinib] (first compound 0.08 µM, partner dose 0.1 µM) | 91.2% | 93.1% | 79% | 92.2% | 106% | 80.7% | 88.2% | 89.7% |  | 
7 | CCCS(=O)(=O)Nc1ccc(F)c(C(=O)c2c[nH]c3ncc(Cl)cc23)c1F + C[C@]1(c2nc3c(C(N)=O)cccc3[nH]2)CCCN1 [Veliparib] (first compound 0.08 µM, partner dose 1.4 µM) | 87.5% | 96.1% | 96.9% | 80.8% | 58.2% | 97.9% | 98.4% | 54.6% |  | 
8 | CCCS(=O)(=O)Nc1ccc(F)c(C(=O)c2c[nH]c3ncc(Cl)cc23)c1F + CC(=O)c1c(C)c2cnc(Nc3ccc(N4CCNCC4)cn3)nc2n(C2CCCC2)c1=O [palbociclib] (first compound 0.08 µM, partner dose 0.04 µM) | 69.1% | 77.4% | 80.2% | 70.3% | 61.4% | 79.1% | 66.5% | 45% |  | 
9 | NC1(c2ccc(-c3nc4ccn5c(=O)[nH]nc5c4cc3-c3ccccc3)cc2)CCC1 + CS(=O)(=O)CCNCc1ccc(-c2ccc3ncnc(Nc4ccc(OCc5cccc(F)c5)c(Cl)c4)c3c2)o1 [lapatinib] (first compound 0.4 µM, partner dose 0.8 µM) | 93% | 92.2% | 86.2% | 68.8% | 60.6% | 86.3% | 79% | 70.5% |  | 
10 | NC1(c2ccc(-c3nc4ccn5c(=O)[nH]nc5c4cc3-c3ccccc3)cc2)CCC1 + Cc1nc(Nc2ncc(C(=O)Nc3c(C)cccc3Cl)s2)cc(N2CCN(CCO)CC2)n1 [dasatanib] (first compound 0.4 µM, partner dose 0.004 µM) | 74.5% | 80.7% | 70.9% | 73.1% | 67.8% | 77.4% | 80.6% | 73.3% |  | 
11 | C=C(c1ccc(C(=O)O)cc1)c1cc2c(cc1C)C(C)(C)CCC2(C)C [Bexarotene] + Clc1ccc(Nc2nnc(Cc3ccncc3)c3ccccc23)cc1 [vatalanib] (first compound 2 µM, partner dose 2 µM) | 94.6% | 80% | 89.4% | 91.2% | 70.9% | 87.7% | 114% | 99% |  | 
12 | NC1(c2ccc(-c3nc4ccn5c(=O)[nH]nc5c4cc3-c3ccccc3)cc2)CCC1 + CO[C@@H]1[C@H](N(C)C(=O)c2ccccc2)C[C@H]2O[C@]1(C)n1c3ccccc3c3c4c(c5c6ccccc6n2c5c31)C(=O)NC4 [Midostaurin] (first compound 0.4 µM, partner dose 0.08 µM) |  | 71.5% | 92.8% | 78.2% | 69.3% | 75.4% | 72.2% | 60.5% | 89.5% | 87.6%
13 | CN(c1ncccc1CNc1nc(Nc2ccc3c(c2)CC(=O)N3)ncc1C(F)(F)F)S(C)(=O)=O + CO[C@H]1C[C@@H]2CC[C@@H](C)[C@@](O)(O2)C(=O)C(=O)N2CCCC[C@H]2C(=O)O[C@H]([C@H](C)C[C@@H]2CC[C@@H](OCCO)[C@H](OC)C2)CC(=O)[C@H](C)/C=C(\C)[C@@H](O)[C@@H](OC)C(=O)[C@H](C)C[C@H](C)/C=C/C=C/C=C/1C [everolimus] (first compound 0.08 µM, partner dose 0.02 µM) | 73.5% | 76.4% | 66.8% | 69.9% | 46.2% |  | 63.1% | 62.3% |  | 
14 | CS(=O)(=O)c1ccc(C(=O)Nc2ccc(Cl)c(-c3ccccn3)c2)c(Cl)c1 [vismodegib] + CS(=O)(=O)CCNCc1ccc(-c2ccc3ncnc(Nc4ccc(OCc5cccc(F)c5)c(Cl)c4)c3c2)o1 [lapatinib] (first compound 1 µM, partner dose 0.8 µM) | 94.6% | 104% | 86.8% | 95.5% | 112% | 98.4% | 79.8% | 101% |  | 
15 | CN(c1ncccc1CNc1nc(Nc2ccc3c(c2)CC(=O)N3)ncc1C(F)(F)F)S(C)(=O)=O + CO[C@@H]1[C@H](N(C)C(=O)c2ccccc2)C[C@H]2O[C@]1(C)n1c3ccccc3c3c4c(c5c6ccccc6n2c5c31)C(=O)NC4 [Midostaurin] (first compound 0.08 µM, partner dose 0.08 µM) |  | 83.9% | 79.7% | 82.6% | 94.5% | 79.3% | 86.5% | 92.6% | 86.2% | 107%
16 | CS(=O)(=O)c1ccc(C(=O)Nc2ccc(Cl)c(-c3ccccn3)c2)c(Cl)c1 [vismodegib] + CCCS(=O)(=O)Nc1ccc(F)c(C(=O)c2c[nH]c3ncc(Cl)cc23)c1F [PLX4720] (first compound 1 µM, partner dose 0.08 µM) |  | 90.7% | 116% | 81.9% | 104% | 89.8% | 90.9% | 86.5% |  | 
17 | C=C(c1ccc(C(=O)O)cc1)c1cc2c(cc1C)C(C)(C)CCC2(C)C [Bexarotene] + Nc1ccn([C@@H]2O[C@H](CO)[C@@H](O)C2(F)F)c(=O)n1 [gemcitabine] (first compound 2 µM, partner dose 0.0004 µM) | 86.1% | 87.8% | 60.8% | 75.8% | 85.4% | 88.8% | 93.9% | 89.2% |  | 
18 | NC1(c2ccc(-c3nc4ccn5c(=O)[nH]nc5c4cc3-c3ccccc3)cc2)CCC1 + Nc1nc(F)nc2c1ncn2[C@@H]1O[C@H](CO)[C@@H](O)[C@@H]1O [fludarabine] (first compound 0.4 µM, partner dose 0.2 µM) |  | 38.2% | 92.5% | 82.4% | 66.9% | 6.77% | 21.6% | 43.2% |  | 
19 | NC1(c2ccc(-c3nc4ccn5c(=O)[nH]nc5c4cc3-c3ccccc3)cc2)CCC1 + COc1ccc(Cl)c(Nc2nc3ccccc3nc2NS(=O)(=O)c2cccc(NC(=O)C(C)(C)N)c2)c1 [XL147] (first compound 0.4 µM, partner dose 0.8 µM) | 88.6% | 79.8% | 97% | 74.3% | 70.8% | 91.5% | 86.9% | 82.1% |  | 
20 | CCCS(=O)(=O)Nc1ccc(F)c(C(=O)c2c[nH]c3ncc(Cl)cc23)c1F + COc1cc2c(Oc3ccc4[nH]c(C)cc4c3F)ncnc2cc1OCCCN1CCCC1 [cediranib] (first compound 0.08 µM, partner dose 0.4 µM) |  | 98.4% | 99.5% | 78.7% | 80.2% |  | 84.4% | 67.2% | 90.8% | 59.2%
21 | CS(=O)(=O)c1ccc(C(=O)Nc2ccc(Cl)c(-c3ccccn3)c2)c(Cl)c1 [vismodegib] + CN1CCN(c2ccc3nc(-c4c(N)c5c(F)cccc5[nH]c4=O)[nH]c3c2)CC1 [Dovitinib] (first compound 1 µM, partner dose 0.1 µM) | 87.5% | 86.4% | 94.7% | 107% | 109% | 104% | 82.1% | 86.2% |  | 
22 | CCCS(=O)(=O)Nc1ccc(F)c(C(=O)c2c[nH]c3ncc(Cl)cc23)c1F + OCc1c[nH]c2ccccc12 [Indole-3-carbinol] (first compound 0.08 µM, partner dose 0.8 µM) |  | 124% | 108% | 88.8% | 94.3% | 102% | 103% | 75.3% |  | 
23 | C=C(c1ccc(C(=O)O)cc1)c1cc2c(cc1C)C(C)(C)CCC2(C)C [Bexarotene] + Nc1ncn([C@H]2C[C@H](O)[C@@H](CO)O2)c(=O)n1 [decitabine] (first compound 2 µM, partner dose 0.1 µM) |  | 78.3% | 68% | 83.7% | 75.8% |  | 117% | 70.7% |  | 

Source: the supplement of paper PMC4604168 (melanoma cell lines)
